Drawing on PubChem BioAssay AID488969 (Vanderbilt High Throughput Screening Facility, 2010), this text covers z-score for 68 compounds.

Whole data set: some 110,000 compounds, median “z-score” near -0.1, cut for the highest 2% near 2. The list shows a part of the results. Activity calls are given as the source filed them.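 The calls were made as follows: active = z-score in the third read window above 3 or below -3; inactive = the rest.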

For this assay, the target named is Metabotropic glutamate receptor 8 (Rattus norvegicus) (UniProt P70579). Kind of assay: mGluR8 Gi/Go-coupled signaling modulation – cell-based, rat, thallium flux, HTS, primary screen (AID 488969). Conditions: HEK293 rat mGluR8, GIRK (G protein-gated inwardly rectifying potassium channel) thallium flux, FluoZin2; at 10 µM; stronger effect = higher value; submaximal glutamate (EC20) added with thallium.
Sequence of UniProt P70579 (P70579 whole entry, looked up): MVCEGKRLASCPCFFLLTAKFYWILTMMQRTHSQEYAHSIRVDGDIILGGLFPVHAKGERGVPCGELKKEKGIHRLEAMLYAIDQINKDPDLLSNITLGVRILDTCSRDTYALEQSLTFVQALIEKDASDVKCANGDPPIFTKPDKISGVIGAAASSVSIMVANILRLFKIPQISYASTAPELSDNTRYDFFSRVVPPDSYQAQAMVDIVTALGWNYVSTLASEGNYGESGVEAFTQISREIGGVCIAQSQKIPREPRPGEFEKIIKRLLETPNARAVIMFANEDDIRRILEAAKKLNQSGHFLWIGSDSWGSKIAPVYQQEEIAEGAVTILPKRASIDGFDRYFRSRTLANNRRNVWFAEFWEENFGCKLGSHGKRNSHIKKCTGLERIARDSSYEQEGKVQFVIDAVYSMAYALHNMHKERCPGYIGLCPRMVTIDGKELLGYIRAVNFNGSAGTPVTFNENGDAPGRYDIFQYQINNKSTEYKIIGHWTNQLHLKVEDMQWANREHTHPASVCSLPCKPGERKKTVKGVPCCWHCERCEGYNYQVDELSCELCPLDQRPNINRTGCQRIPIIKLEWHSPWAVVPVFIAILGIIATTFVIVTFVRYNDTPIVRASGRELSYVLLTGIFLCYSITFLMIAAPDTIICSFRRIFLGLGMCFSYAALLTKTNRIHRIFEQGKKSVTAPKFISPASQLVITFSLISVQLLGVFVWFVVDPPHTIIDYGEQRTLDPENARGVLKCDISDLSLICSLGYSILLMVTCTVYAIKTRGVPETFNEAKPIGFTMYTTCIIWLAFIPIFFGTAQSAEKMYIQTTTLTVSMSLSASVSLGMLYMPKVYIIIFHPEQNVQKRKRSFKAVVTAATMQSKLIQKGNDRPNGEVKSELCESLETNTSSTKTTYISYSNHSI
Compound `COc1ccccc1OCc1nc2ccccc2s1` gave a z-score of -0.142.
To `CCOc1cc(/C=C2\C(=O)N(c3nc(-c4ccc(Br)cc4)cs3)N=C2c2ccccc2)ccc1O` belongs -0.39; to `Cc1cccc(N2CCN(CC(O)COCc3cccs3)CC2)c1C` (stereo not drawn), 0.0218.
The same measure for `Cc1ccc(CC(NC(=O)c2ccccc2)C(=O)NC(C)C(=O)O)cc1` (stereo not drawn): -1.7; for `Cc1cc(-c2csc(N)n2)c(C)n1C`: -0.0754; for `COc1ccc(C2c3c(oc4ccccc4c3=O)C(=O)N2c2ccccn2)cc1` (stereo not drawn): -0.221.
To `COc1cc(OC)cc(-c2cc3nc(C)c(CCC(=O)O)c(=O)n3[nH]2)c1` belongs 0.713; to `C=CCn1c(-c2cccc3ccccc23)n[nH]c1=S`, -0.0908.
`COc1ccc(NC(=O)CN(C2CCCCC2)S(C)(=O)=O)cc1OC` showed a z-score of 1.04.
`O=C(Cc1ccc(F)cc1)NC1CCCC1`: the z-score amounted to 0.266.
In turn, `COc1ccc(CN(Cc2ccco2)S(=O)(=O)c2ccc(S(=O)(=O)N3CCCC3)cc2)cc1` showed a z-score of -0.254.
Regarding `Cc1cc(C(=O)CN2C(=O)c3cccc(N)c3C2=O)c(C)n1Cc1cccs1`, the z-score was -0.264.
`Cc1ccc(/C=C/C(=O)OCC(=O)Nc2ccccc2Sc2ccccc2)cc1`: the z-score came to 0.00277.
`O=C(O)C1CCCCC1C(=O)Nc1ccccc1F` (stereo not drawn) gave a z-score of -0.0496.
`Cc1ccccc1-c1nc(CN2CCC(C(=O)O)CC2)c(C)o1`: the z-score was -0.619.
To `COc1cc2c(cc1OC)C(c1cc(OC)c(OC)c(OC)c1)NCC2` (stereo not drawn) belongs -0.346; to `CC(C)(C)C(=O)N1CCN(c2ccc([N+](=O)[O-])c(NCC3CCCO3)c2)CC1` (stereo not drawn), -0.343; to `COc1cc(NC(=O)c2cccc(COCC(F)(F)C(F)F)c2)cc(OC)c1OC`, 0.706.
To `Cc1cccc(CN2C(=O)CCSc3ccc(Cl)cc32)c1` belongs -0.268; to `CC(/C=N/Nc1nc2ccccc2[nH]1)=C\c1ccccc1`, -0.239; to `Cc1ccc(C(C)n2cc(C(=O)NCc3ccncc3)nn2)cc1` (stereo not drawn), -0.972.
The same measure for `Cc1ccc(-n2ncc(N(C)C)c(Cl)c2=O)cc1`: 0.00759.
For `CCOC(=O)CNC(=O)c1cnn2cccnc12`, the z-score worked out at 0.154.
Take `CC(C)OP(=O)(c1ccc(N(C)C)cc1)C(Nc1ccccc1)c1cccnc1` (stereo not drawn): the z-score is -0.279.
The same measure for `CCCc1nnc(NC(=O)CN2C(=O)C3C4C=CC(C4)C3C2=O)s1` (stereo not drawn): 0.0617; for `Cn1c(=O)c2c(SCC(=O)Nc3ccc4c(c3)OCCO4)nc(CC(C)(C)C)nc2n(C)c1=O`: 0.141; for `COc1ccc(N2CCN(c3ccc(N4C(=O)COCC4=O)cc3[N+](=O)[O-])CC2)cc1`: -0.0476.
The same measure for `O=C(Cn1c(=O)n(Cc2ccc3c(c2)OCO3)c(=O)c2ccccc21)N1CCCc2ccccc21`: -0.353.
In the case of `CCn1ncc(Br)c1C(=O)Nc1ccccc1C(=O)OC`, the z-score was -0.647.
The same measure for `COc1ccc(-c2nnc(Nc3ccc(OC)c(C(=O)N4CCCCC4)c3)c3ccccc23)cc1`: -0.279; for `O=C(NCCCN1CCN(CCCNC(=O)c2cccc([N+](=O)[O-])c2)CC1)c1cccc([N+](=O)[O-])c1`: -0.584.
To `COc1ccccc1N(CC(=O)N1CCCCC1)S(=O)(=O)c1ccccc1` belongs -0.979; to `Cc1noc(/C=C/N(C)C)c1S(=O)(=O)N1CCCC(C(=O)N2CCc3ccccc32)C1` (stereo not drawn), -0.205.
For `NNC(=O)CN1C(=O)Nc2ccc(Br)cc2C1c1ccccc1` (stereo not drawn), the z-score was -0.236.
The same measure for `Cc1ccc(/C=C/C(=O)Nc2nccs2)o1`: -0.147.
In the case of `Cc1oc(/N=C/c2ccccc2O)c(C#N)c1C`, the z-score is -0.169.
As for `CC(C(=O)Nc1sc2c(c1C(=O)NCc1ccco1)CCCC2)N1C(=O)c2ccccc2C1=O` (stereo not drawn), the z-score is -0.16.
`N#Cc1cc2ccccc2nc1SCC(=O)Nc1ccc(S(=O)(=O)N2CCCC2)cc1`: the z-score came to 0.0862.
To `COCCN(C(=O)CNC(=O)c1cccs1)C(C(=O)NC1CCCCC1)c1ccco1` (stereo not drawn) belongs -0.195; to `CC1(C)Oc2ccc3ccc(=O)oc3c2/C(=C/NCCO)C1=O`, -0.152.
To `COc1cccc(OC)c1C(=O)Nc1ccc2c3c(cccc13)CC2` belongs -0.248.
Take `Cc1cc(C)cc(N(CC(=O)N2CCn3c2nc2ccccc23)S(=O)(=O)c2c(C)noc2C)c1`: the z-score is 1.97.
To `C/C(=C\C(=O)c1ccccc1)Nc1ccc(N2CCOCC2)cc1` belongs -0.153; to `COc1ccc2nc(-n3c(O)c(C4=c5ccccc5=NC4=O)[nH]c3=S)sc2c1`, 0.205; to `CC1CCCC(NC(=O)COC(=O)c2ccc3ccccc3n2)C1C` (stereo not drawn), -0.336.
To `COc1ccc(NCc2ccc3c(c2)OCO3)cc1Cl` belongs 0.737; to `c1csc(C2=Nn3c(nnc3-c3ccncc3)SC2)c1`, 0.00281.
The same measure for `N#C/C(C(=O)NCc1ccco1)=C1/SC(Cc2ccc(Cl)cc2)C(=O)N1c1ccccc1` (stereo not drawn): -0.209; for `CN1CCN(S(=O)(=O)c2ccc(NC(=O)C(C)(C)C)cc2)CC1`: -0.556; for `CCN1C(=O)/C(=C2/C=Cc3cc(C)ccc3N2CC)N(C)C1=S`: 0.264.
For `Cn1c(N2CCOCC2)nc2c1c(=O)n(Cc1ccc(Cl)c(Cl)c1)c(=O)n2C`, the z-score was -0.258.
To `CN(C)S(=O)(=O)c1ccc(NC(=O)COC(=O)c2ccccn2)cc1` belongs -0.152; to `Cc1cc(C)n(-c2nc3ccccc3nc2N2CCN(C(=O)c3ccc(F)cc3)CC2)n1`, 0.0365.
With `CCOc1ccc(-c2n[nH]c(C(=O)NN)c2C)cc1`, the z-score turned out to be 0.202.
To `CCN(CC)C(=O)COc1ccc(Br)cc1Cl` belongs -0.89; to `Cc1cn(Cc2ccccc2)c(=O)[nH]c1=O`, -0.129; to `CCn1c(=O)c(C(=O)NC(C)C)c(O)c2ccccc21`, -0.78.
The same measure for `O=C(Nc1ccc2c(c1)OCCO2)c1cc2sccc2n1Cc1ccccc1`: -0.848.
In turn, `CCCc1nnc(NC(=O)CCC(=O)O)s1` came in with a z-score of 0.195.
With `O=C(CN1CCN(C(=O)c2ccco2)CC1)Nc1cc(C(F)(F)F)ccc1Cl`, the z-score worked out at 0.217.
The same measure for `O=C(CN(c1ccccc1)S(=O)(=O)c1ccc(Cl)cc1)Nc1ccccc1C(=O)N1CCCC1`: -0.307; for `Cc1cc(C)c(C)c(S(=O)(=O)N2CCN(Cc3nc4ccccc4[nH]3)CC2)c1C`: -0.269.
Take `O=C(NC(=S)Nc1ccc(N2CCCCC2)cc1)c1cccs1`: the z-score is active: 11.
The compound `CCOc1ccccc1N1CCN(C(=O)CC(C)C)CC1` displayed a z-score of -0.226.
To `O=C(NC1CCCCC1)C(c1ccc2ncccc2c1)N(Cc1ccccc1)C(=O)c1cccs1` (stereo not drawn) belongs -1.29.
The same measure for `O=C(NCCCN1CCCC1=O)c1cc(NS(=O)(=O)c2ccc(F)cc2)cc(NS(=O)(=O)c2ccc(F)cc2)c1`: -0.119; for `O=C(N/C=C/c1ccc(Cl)cc1)NCc1ccc(Cl)cc1`: 0.198.
To `Nc1nc(NC(=O)c2cccc(S(=O)(=O)N3CCCCCC3)c2)nc(-c2ccccc2)n1` belongs 0.128.
